About 65 (0.1%) of roughly 45,000 compounds were called active. Calls come from the whole dose curve; as a rule, active = well fitted activation curve with a large enough effect; inconclusive = small, poorly fitted or top-dose-only effect; inactive = no such curve, though single readings can be large or run the other way. This is one part of the list.
The molecules below were run against Galactocerebrosidase (Homo sapiens) (UniProt P54803) (assay: A Novel Cell-Based Assay to Identify Small Molecules for B -Galactocerebrosidase). Settings: 145M-Twi-hGALC-G270D cells, HMU-beta-Gal fluorescence, 48 h; series mostly up to 57.5 µM; activation: at the top concentration.
Procedure, shortened: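 qHTS, 1536-well; 145M-Twi-hGALC-G270D cells (WT line also made) in DMEM/F12 + 10% FBS; compound incubation on live cells; HMU-β-gal 0.1 mM final, pH 5.2, NaTC; carbonate stop; fluorescence increase = enhanced residual activity.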
Note: 0% is about no effect; nearly all actives have a fitted effect of over 65% in size.

Sequence of UniProt P54803 (P54803 whole entry, looked up): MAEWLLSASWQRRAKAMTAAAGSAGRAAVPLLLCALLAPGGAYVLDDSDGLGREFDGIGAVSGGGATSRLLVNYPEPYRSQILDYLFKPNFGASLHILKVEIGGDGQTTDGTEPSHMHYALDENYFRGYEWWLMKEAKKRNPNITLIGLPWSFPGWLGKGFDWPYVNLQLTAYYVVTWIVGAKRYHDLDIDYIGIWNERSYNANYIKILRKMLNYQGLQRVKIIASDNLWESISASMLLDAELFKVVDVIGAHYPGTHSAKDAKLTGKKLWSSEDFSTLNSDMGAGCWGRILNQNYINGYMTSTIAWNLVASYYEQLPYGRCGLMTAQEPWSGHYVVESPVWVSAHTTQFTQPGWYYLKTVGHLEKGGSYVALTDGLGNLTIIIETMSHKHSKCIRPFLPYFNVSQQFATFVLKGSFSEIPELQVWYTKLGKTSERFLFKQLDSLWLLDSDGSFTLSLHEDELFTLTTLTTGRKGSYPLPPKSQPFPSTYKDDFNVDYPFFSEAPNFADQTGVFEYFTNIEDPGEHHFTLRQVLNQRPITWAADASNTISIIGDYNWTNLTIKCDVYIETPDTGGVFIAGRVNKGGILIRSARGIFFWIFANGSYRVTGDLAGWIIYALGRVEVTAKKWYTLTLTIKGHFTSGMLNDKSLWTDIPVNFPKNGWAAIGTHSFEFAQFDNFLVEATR

activation, inactive:
CCOc1ccc(C2NC(=O)c3c(COC)cc(C)nc3N2Cc2ccccc2)cc1OC (configuration not stated) -14%
Cc1ccc(Cn2cc(S(=O)(=O)c3cccc(Cl)c3)c(=O)c3cc(F)c(N4CCOCC4)cc32)cc1 -10%
CCCOc1ccc(CNC(=O)c2ccc(-n3c(C)cc4c3CCC(C)C4)cc2)cc1 (configuration not stated) -17%
Cc1cc2oc(C(=O)Nc3ccc(S(=O)(=O)Nc4ncccn4)cc3)cc(=O)c2cc1C -3.44%
Cc1ccc(NC(=O)C2CCCN(S(=O)(=O)c3cn(C(C)C)cn3)C2)c(C)c1 (configuration not stated) -10.2%
COc1ccccc1-c1noc(CCC(=O)Nc2ccc(C)cc2C)n1 -16.5%
CC(C)OC(=O)c1c(NC(=O)C2c3ccccc3Oc3ccccc32)sc2c1CCCC2 -5.79%
COc1cc(OC)c(NC(=O)CCc2c(C)nc3cc(-c4ccccc4OC)nn3c2C)cc1Cl -30.9%
Cc1ccc(C)c(N2CCN(C(=O)c3ccc4c(c3)N(Cc3ccc(F)cc3)C(=O)c3ccccc3S4=O)CC2)c1 (configuration not stated) 0.324%
CC1CCC(Nc2nc3c(-c4cccc(C(F)(F)F)c4)nnn3c3ccccc23)CC1 (configuration not stated) -16.8%
CCc1ccc2oc(C(=O)Nc3cc(C)ccc3C)cc(=O)c2c1 -12.6%
CC(C)c1nn2c(=O)cc(COC(=O)c3ccccc3NC(=O)C3CCCCC3)nc2s1 -3.47%
O=C(Nc1cc2c(cc1C(=O)c1ccccc1Cl)OCCO2)c1ccccc1 0.66%
CC(=O)c1ccc(Nc2cc(C)nc3nc(Cc4ccc(Cl)cc4)nn23)cc1 -10.9%
CC1Cc2ccccc2N1C(=O)CSc1nnc(-c2ccccc2Cl)o1 (configuration not stated) -8.84%
CN(C)c1ccc(CNC(=O)c2ccccc2NC(=O)c2nsc3ccccc23)cc1 4.28%
Cc1cc(C)c(NC(=O)CCn2c(=O)c3cccn3c3cccnc32)c(C)c1 -12%
Clc1cccc(CNc2cc(-c3ccccc3)nc3nncn23)c1 -2.6%
CCc1ccccc1NC(=O)Cn1nc(C(F)(F)F)c2c1CCCC2 -19.5%
OCCN1CCN(C(c2ccccc2Cl)c2sc3nc(-c4ccco4)nn3c2O)CC1 (configuration not stated) -5.95%
Cc1cccc(N2C(=O)CS(=O)(=O)C23C(=O)N(Cc2c(F)cccc2Cl)c2ccccc23)c1 (configuration not stated) -20.6%
CSc1cccc(NC(=O)CN2CCN(Cc3ccccc3C)S2(=O)=O)c1 -7.41%
CCCS(=O)(=O)N1CC(=O)N(c2cc(C)ccc2C)C(C)(C(=O)NC2CCCCCC2)C1 (configuration not stated) 9.03%
N#CC1=C(N)N(c2cccc(Cl)c2)C2=C(C(=O)CCC2)C1c1cc(CN2CCOCC2)cs1 (configuration not stated) 1.82%
CC(C)N1C(=O)C(O)(c2c[nH]c3ccccc23)c2ccccc21 (configuration not stated) -25.3%
COc1cccc(-c2cn3c(n2)sc2cc(C(=O)NCCc4ccc(OC)c(OC)c4)ccc23)c1 -11.4%
Cc1cccc(N2CCn3c2nc2c3c(=O)n(CCc3ccccc3)c(=O)n2C)c1 -3.25%
O=C(O)CCCNc1cc(N2CCN(C3CCCCC3)CC2)c2noc3c2c1C(=O)c1ccccc1-3 -10.2%
CCOc1ccc(-c2cc(C(=O)Nc3ccc(NC(C)=O)cc3)no2)cc1 3.82%
CCOc1ccc(OCC)c(NC(=O)CC(C)n2nc(C)cc2C)c1 (configuration not stated) -14%
Cc1ccc2onc(CNC(=O)NCc3cccc(Cl)c3)c2c1 -13.5%
Cc1cc(C)cc(Oc2coc3cc(OCC(=O)NC4CCCCC4)ccc3c2=O)c1 -11.6%
Cc1cc(N)c(-n2cc3c(c2-c2ccc(Br)cc2)c(=O)n(C)c(=O)n3C)cc1C -15.9%
CC(=O)Nc1ccc(S(=O)(=O)N2CCC(c3nnnn3-c3ccccc3)CC2)cc1 -9.33%
CCOc1ccc(-n2nc(CO)c(C(=O)NCCCc3ccccc3)n2)cc1 -42%
Nc1nonc1-c1nc2ccccc2n1Cc1cccc(Cl)c1 1.83%
CCOc1ccc(NC(=O)CC2C(=O)N(c3ccc(C)cc3)C(=O)N2CCC2=CCCCC2)cc1 (configuration not stated) -18.2%
O=C(c1cccn2c(=O)c3cc(Cl)ccc3nc12)N1CCN(c2ccccc2F)CC1 -12.9%
CC(C)c1ccc(NC(=O)c2ccc(F)c(S(=O)(=O)N3CCc4ccccc4C3)c2)cc1 -13.8%
Cc1ccc(CN(C(=O)c2ccccc2F)c2ccccn2)o1 14.2%
CCOC(=O)c1ccccc1NC(=O)CSc1nc(=O)[nH]c2c1CCC2 -17.3%
Cc1ccccc1CN1C(=O)C2(c3ccccc31)N(c1ccccc1)C(=O)CS2(=O)=O (configuration not stated) -24.8%
COc1ccc(CCNC(=O)c2c(O)nc3ccccn3c2=O)cc1 -13.2%
COc1ccc(Cl)cc1NC(=O)Cn1cc(C(=O)c2ccc(C)cc2)c(=O)c2ccc(C)nc21 -22.8%
Cc1ccn2c(=O)c(C(=O)NCCCN3CCCCC3C)c(O)nc2c1 (configuration not stated) 0.415%
C=CCc1cccc2cc(C(=O)Nc3ccc(F)cc3)c(=O)oc12 -6.92%
COc1ccc2oc(=O)c(C(=O)Nc3ccc(C(=O)O)cc3)cc2c1 -14.2%
Cc1ccc(NC(=O)CCSc2nc(-c3ccco3)cc(C(F)(F)F)n2)cc1F -13.6%
O=C(COc1ccc(Cl)cc1)Nc1ccc(C(=O)OCc2cc(=O)n3ccsc3n2)cc1 -17.1%
C=Cc1ccc(Cn2c(C)c(CNCCc3ccccc3C)c(C(=O)O)c2C)cc1 -9.22%
FC(F)(F)Oc1ccc2c(c1)NC(c1ccncc1)=NC(c1cccs1)=N2 -27.4%
COc1ccc(OCC(=O)Nc2nnc3n2CCS3)cc1 -19%
CCOC(=O)N1CCN(Cc2nc3cc(NC(=O)c4ccc(OC)cc4)ccc3n2C(C)C)CC1 -3.09%
Nc1ccc(S(=O)(=O)Nc2ccc(Cl)nn2)cc1 -15.4%
O=c1n(Cc2cccc(F)c2)c2ccccc2c2nc(-c3ccccc3)nn12 -1.39%
Oc1ccccc1C=NCc1ccccc1 -20.2%
CN(C)C=NC(=O)c1cc2c(n(-c3ccccc3)c1=O)CC(C)(C)CC2=O -4.47%
CCCCOc1ccc(C(C)NC(=O)c2cccc(Nc3nc4ccccc4n4nnnc34)c2)cc1 (configuration not stated) -9.06%
CCOc1ccc(CCNC(=O)CSc2n[nH]c(-c3ccccc3)n2)cc1OCC -8.35%
Cc1c(CC(=O)N2CCCCC2)c(=O)oc2c(C)c3occ(C(C)(C)C)c3cc12 -3.79%
COc1ccc(Cl)cc1NC(=O)C1CCN(c2nnc(C)c3c(C)n(-c4ccccc4)nc23)CC1 -10%
Cc1ccc(CN2CCSc3ccc(C(=O)NCCc4ccccc4)cc32)cc1 -10.3%
COc1ccc(CN(C(=O)Nc2cccc(Cl)c2)c2ccccn2)cc1OC -33.6%
Cc1cccc(N2CCN(C(=O)c3ccc(CS(=O)c4cccc(Cl)c4)o3)CC2)c1C (configuration not stated) -10.5%
COc1cccc(CSc2nc3n(n2)C(c2cccc(F)c2)C(C(=O)Nc2ccccc2C)=C(C)N3)c1 (configuration not stated) -19.9%
CN(C)c1cc2c(cc1NS(=O)(=O)c1ccccc1)n(C)c(=O)n2C -20.2%
COc1ccc(Cl)cc1NC(=O)CCS(=O)(=O)c1cccc2nonc12 1.92%
COc1ccc(CNC(=O)CCCN2C(=O)CSc3c2c(C)nn3-c2ccccc2)c(OC)c1 2.33%
CCSc1nnc2c(n1)OC(c1ccc(C)cc1)N(C(C)=O)c1ccccc1-2 (configuration not stated) -15.7%
COCCNC(=O)CCC(=O)N1Cc2cccc(OC)c2Oc2ncccc21 -17%
Cc1ccc(-c2[nH]c3ccccc3c2SCCNC(=O)c2ccc(S(=O)(=O)N(C)C)cc2)cc1 -7.87%
Cc1ccc(NC(=O)C(=O)NCC(c2cccnc2)N2CCOCC2)cc1Cl (configuration not stated) -12.3%
CCn1cc(S(=O)(=O)c2cccc(Cl)c2)c(=O)c2cc(F)c(N3CCC(C)CC3)cc21 -12.2%
Cc1ccc(-n2nc(C)c3c(C)cc(=O)n(CC(=O)N4CCCc5ccccc54)c32)cc1 3.76%
Cc1ccc(NC(=O)c2c(C)oc3ncnc(N4CCCCC4)c23)cc1Cl -13.1%
O=C(Cc1ccc(Cl)cc1)Nc1nnc2n1CCS2 -5.76%
COc1ccc(C)cc1NC(=O)CCc1c(C)nn(-c2ccc(N3CCOCC3)nn2)c1C -3.44%
COc1cccc(-c2ccc3c(N)c(C(=O)c4ccc(Br)cc4)sc3n2)c1 -11.2%
CCc1ccc(NC(=O)Cn2ccn(Cc3ccccc3OC)c(=O)c2=O)cc1 -3.65%
O=C(O)c1ccccc1NCCc1ccccc1 -13.9%
COc1cccc(CNC(=O)Cc2csc3ccccc23)c1OC -14.5%
COc1ccc(NC(=O)C(=O)NCC2(c3ccc(OC)c(OC)c3)CCCC2)cc1 -31.8%
Cc1cc(C)c(NS(=O)(=O)c2ccc(-c3cnc(C4CC4)o3)cc2)c(C)c1 -38.9%
O=C(COCc1cc(-c2cccs2)on1)NCc1ccc(Cl)cc1 -26.7%
COc1cc(NC(=O)Cn2nnc(-c3ccc(C(F)(F)F)cc3)n2)c(C(=O)O)cc1OC -5.36%
CCOc1ccc(N(CC)C(=O)C2CCN(S(=O)(=O)c3cccc4nonc34)CC2)cc1 -14.2%
COc1cccc(OCc2nc3ccccc3n2Cc2ccccc2C)c1 -12.3%
COc1ccc(NC(=O)CCCSc2nc(-c3ccco3)cc(C(F)(F)F)n2)c(OC)c1 5.32%
CCC(=O)n1nc(-c2cccnc2)nc1NCc1ccc(F)cc1 -16.1%
O=C(Cn1c(=O)oc2cc(S(=O)(=O)NCc3ccccc3)ccc21)Nc1ccc(F)c(Cl)c1 -6.57%
COc1ccc(CCC(=O)NC2CC(=O)N(c3cccc(F)c3)C2)cc1 (configuration not stated) -9.8%
Cc1c(Cl)cccc1Nc1nc(N)nc(CSc2nc3ccccc3s2)n1 -11.4%
CC1CCN(S(=O)(=O)c2ccc3c(c2)N(CC(=O)NCCc2ccc(Cl)cc2)C(=O)CO3)CC1 -4.07%
Cc1ccc(NC(=O)CCCn2c3ccccc3c(=O)c3cc(C)ccc32)c(Br)c1 -16.4%
CCOC(=O)c1c(C)[nH]c(C)c1S(=O)(=O)N1CCC(C(=O)N2CCN(c3cc(C)ccc3C)CC2)CC1 -14.1%
Cc1ccc2oc(C(=O)Nc3ccc(S(=O)(=O)Nc4onc(C)c4C)cc3)cc(=O)c2c1 -20.8%
O=C1CS(=O)(=O)C2(C(=O)N(Cc3ccc(F)cc3)c3ccccc32)N1c1cccc(C(F)(F)F)c1 (configuration not stated) -25.6%
